Measurements: the supplement of paper PMC8728848
This is one part of the list.

Key:
Assay in all cases: glycan array binding signal (z-score within array); higher = stronger binding
Conditions in all cases: glycan notation: IUPAC condensed, linker removed
Glc(a1-2)Glc = target: Glc(a1-2)Glc
Outline: (§1)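 The binding signal is a Z-score computed within each array. Data were drawn from 3228 arrays in the Consortium for Functional Glycomics database, restricted to those with a known protein sequence. Scores were averaged over arrays of the same protein sequence at different concentrations or buffers, and over linkers, and negative values can be taken as non-binding.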

[1] = target: Glc(a1-2)Glc(a1-3)Glc(a1-3)Man(a1-2)Man(a1-2)Man(a1-3)[Man(a1-3)[Man(a1-6)]Man(a1-6)]Man(b1-4)GlcNAc
Outline: as §1

Glc(a1-3)Glc = target: Glc(a1-3)Glc
Outline: as §1

[2] = target: Glc(a1-3)Glc(a1-3)Man(a1-2)Man(a1-2)Man(a1-3)[Man(a1-3)[Man(a1-6)]Man(a1-6)]Man(b1-4)GlcNAc
Outline: as §1

[3] = target: Glc(a1-3)Man(a1-2)Man(a1-2)Man(a1-3)[Man(a1-2)Man(a1-3)[Man(a1-2)Man(a1-6)]Man(a1-6)]Man(b1-4)GlcNAc(b1-4)GlcNAc
Outline: as §1

Glc(a1-4)Glc = target: Glc(a1-4)Glc
Outline: as §1

Glc(a1-4)Glc(a1-4)Glc = target: Glc(a1-4)Glc(a1-4)Glc
Outline: as §1

[4] = target: Glc(a1-4)Glc(a1-4)Glc(a1-4)Glc
Outline: as §1

[5] = target: Glc(a1-4)Glc(a1-4)Glc(a1-4)Glc(a1-4)Glc
Outline: as §1

[6] = target: Glc(a1-4)Glc(a1-4)Glc(a1-4)Glc(a1-4)Glc(a1-4)Glc
Outline: as §1

[7] = target: Glc(a1-4)Glc(a1-4)Glc(a1-4)Glc(a1-4)Glc(a1-4)Glc(a1-4)Glc
Outline: as §1

Glc(a1-6)Glc = target: Glc(a1-6)Glc
Outline: as §1

Glc(a1-6)Glc(a1-6)Glc = target: Glc(a1-6)Glc(a1-6)Glc
Outline: as §1

[8] = target: Glc(a1-6)Glc(a1-6)Glc(a1-6)Glc
Outline: as §1

[9] = target: Glc(a1-6)Glc(a1-6)Glc(a1-6)Glc(a1-6)Glc
Outline: as §1

[10] = target: Glc(a1-6)Glc(a1-6)Glc(a1-6)Glc(a1-6)Glc(a1-6)Glc
Outline: as §1

[11] = target: Glc(a1-6)Glc(a1-6)Glc(a1-6)Glc(a1-6)Glc(a1-6)Glc(a1-6)Glc
Outline: as §1

Glc(b1-3)Glc = target: Glc(b1-3)Glc
Outline: as §1

Glc(b1-3)Glc(b1-3)Glc = target: Glc(b1-3)Glc(b1-3)Glc
Outline: as §1

[12] = target: Glc(b1-3)Glc(b1-3)Glc(b1-3)Glc
Outline: as §1

[13] = target: Glc(b1-3)Glc(b1-3)Glc(b1-3)Glc(b1-3)Glc
Outline: as §1

[14] = target: Glc(b1-3)Glc(b1-3)Glc(b1-3)Glc(b1-3)Glc(b1-3)Glc
Outline: as §1

[15] = target: Glc(b1-3)Glc(b1-3)Glc(b1-3)Glc(b1-3)Glc(b1-3)Glc(b1-3)Glc
Outline: as §1

Glc(b1-4)Glc = target: Glc(b1-4)Glc
Outline: as §1

Glc(b1-4)Glc(b1-4)Glc = target: Glc(b1-4)Glc(b1-4)Glc
Outline: as §1

[16] = target: Glc(b1-4)Glc(b1-4)Glc(b1-4)Glc
Outline: as §1

[17] = target: Glc(b1-4)Glc(b1-4)Glc(b1-4)Glc(b1-4)Glc
Outline: as §1

[18] = target: Glc(b1-4)Glc(b1-4)Glc(b1-4)Glc(b1-4)Glc(b1-4)Glc
Outline: as §1

[19] = target: Glc(b1-4)Glc(b1-4)Glc(b1-4)Glc(b1-4)Glc(b1-4)Glc(b1-4)Glc
Outline: as §1

Glc(b1-6)Glc = target: Glc(b1-6)Glc
Outline: as §1

Glc(b1-6)Glc(b1-6)Glc = target: Glc(b1-6)Glc(b1-6)Glc
Outline: as §1

[20] = target: Glc(b1-6)Glc(b1-6)Glc(b1-6)Glc
Outline: as §1

[21] = target: Glc(b1-6)Glc(b1-6)Glc(b1-6)Glc(b1-6)Glc
Outline: as §1

[22] = target: Glc(b1-6)Glc(b1-6)Glc(b1-6)Glc(b1-6)Glc(b1-6)Glc
Outline: as §1

[23] = target: Glc(b1-6)Glc(b1-6)Glc(b1-6)Glc(b1-6)Glc(b1-6)Glc(b1-6)Glc
Outline: as §1

B1: Malectin (Homo sapiens), Q14165 (protein)
chain: MLGAWAVEGTAVALLRLLLLLLPPAIRGPGLGVAGVAGAAGAGLPESVIWAVNAGGEAHVDVHGIHFRKDPLEGRVGRASDYGMKLPILRSNPEDQILYQTERYNEETFGYEVPIKEEGDYVLVLKFAEVYFAQSQQKVFDVRLNGHVVVKDLDIFDRVGHSTAHDEIIPMSIRKGKLSVQGEVSTFTGKLYIEFVKGYYDNPKVCALYIMAGTVDDVPKLQPHPGLEKKEEEEEEEEYDEGSNLKKQTNKNRVQSGPRTPNPYASDNSSLMFPILVAFGVFIPTLFCLCRL
Question: B1 was tested. Which “glycan array binding signal (z-score)” value (Glc(a1-2)Glc) did it give?
Answer: -0.417

Question: And the “glycan array binding signal (z-score)” value [1]?
Answer: -0.041

Question: And the “glycan array binding signal (z-score)” value (Glc(a1-3)Glc)?
Answer: -0.049

Question: What about the “glycan array binding signal (z-score)” value [2] of the same binder?
Answer: 5.02

Question: What about the “glycan array binding signal (z-score)” value [3] of the same binder?
Answer: -0.386

Question: What about the “glycan array binding signal (z-score)” value (Glc(a1-4)Glc) of the same binder?
Answer: 0.876

Question: What about the “glycan array binding signal (z-score)” value (Glc(a1-4)Glc(a1-4)Glc) of the same binder?
Answer: -0.403

Question: What about the “glycan array binding signal (z-score)” value [4] of the same binder?
Answer: -0.367

Question: What about the “glycan array binding signal (z-score)” value [5] of the same binder?
Answer: -0.172

Question: What about the “glycan array binding signal (z-score)” value [6] of the same binder?
Answer: -0.186

Question: What about the “glycan array binding signal (z-score)” value [7] of the same binder?
Answer: -0.012

Question: And the “glycan array binding signal (z-score)” value (Glc(a1-6)Glc)?
Answer: -0.361

Question: What about the “glycan array binding signal (z-score)” value (Glc(a1-6)Glc(a1-6)Glc) of the same binder?
Answer: -0.342

Question: What about the “glycan array binding signal (z-score)” value [8] of the same binder?
Answer: 0.25

Question: And the “glycan array binding signal (z-score)” value [9]?
Answer: 0.943

Question: And the “glycan array binding signal (z-score)” value [10]?
Answer: 2.06

Question: What about the “glycan array binding signal (z-score)” value [11] of the same binder?
Answer: 0.441

Question: And the “glycan array binding signal (z-score)” value (Glc(b1-3)Glc)?
Answer: -0.418

Question: What about the “glycan array binding signal (z-score)” value (Glc(b1-3)Glc(b1-3)Glc) of the same binder?
Answer: -0.418

Question: What about the “glycan array binding signal (z-score)” value [12] of the same binder?
Answer: -0.337

Question: And the “glycan array binding signal (z-score)” value [13]?
Answer: -0.329

Question: And the “glycan array binding signal (z-score)” value [14]?
Answer: -0.204

Question: And the “glycan array binding signal (z-score)” value [15]?
Answer: -0.176

Question: And the “glycan array binding signal (z-score)” value (Glc(b1-4)Glc)?
Answer: -0.418

Question: What about the “glycan array binding signal (z-score)” value (Glc(b1-4)Glc(b1-4)Glc) of the same binder?
Answer: -0.412

Question: What about the “glycan array binding signal (z-score)” value [16] of the same binder?
Answer: -0.412

Question: And the “glycan array binding signal (z-score)” value [17]?
Answer: -0.418

Question: And the “glycan array binding signal (z-score)” value [18]?
Answer: -0.418

Question: And the “glycan array binding signal (z-score)” value [19]?
Answer: -0.386

Question: What about the “glycan array binding signal (z-score)” value (Glc(b1-6)Glc) of the same binder?
Answer: -0.418

Question: What about the “glycan array binding signal (z-score)” value (Glc(b1-6)Glc(b1-6)Glc) of the same binder?
Answer: -0.418

Question: What about the “glycan array binding signal (z-score)” value [20] of the same binder?
Answer: -0.418

Question: And the “glycan array binding signal (z-score)” value [21]?
Answer: -0.418

Question: What about the “glycan array binding signal (z-score)” value [22] of the same binder?
Answer: -0.418

Question: And the “glycan array binding signal (z-score)” value [23]?
Answer: -0.418
